Laboratory results published in PubChem BioAssay AID2112 (National Center for Advancing Translational Sciences (NCATS), 2009).
In all, about 240,000 compounds went through this assay and about 15 (0.006%) were called active. This list was built around the results that the source calls inconclusive (neither active nor inactive); the mix of calls is not that of the screen. The call rests on the fitted dose curve; in most records, active means well fitted inhibition curve with a large enough effect; inconclusive means small, poorly fitted or top-dose-only effect, or effect the other way, or another doubt; inactive means no such curve, though single readings can be large or run the other way. No potency is given beside an inconclusive call; the fits are too rough.

target: Lysosomal alpha-glucosidase (Homo sapiens) (UniProt P10253); test: qHTS Assay for Inhibitors and Activators of Human alpha-Glucosidase From Spleen Homogenate; settings: 4-MU-alpha-glucoside fluorescence; series mostly up to 79.9 µM
Summary of the method: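 Human spleen homogenate (1 ug) incubated with compounds and 1 mM 4-methylumbelliferyl-alpha-D-glucopyranoside in pH 5.0 citrate/phosphate buffer, 37 C, 40 min. Stopped at pH 10; 4-MU fluorescence (Ex 365/Em 440 nm); AC50 by Hill fit.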
Potency means the concentration at half of the fitted maximal effect; tags describe the fitted curve by direction and shape.

SMILES | Potency
Cc1ccc(CNC(=O)CN(Cc2ccccc2)S(C)(=O)=O)cc1 | inconclusive [inhibitor, single point]
Cc1nc2ccc(S(=O)(=O)Nc3ccc(-c4nc5cccnc5s4)cc3)cc2s1 | inconclusive [activator, partial curve]
CC(C)Oc1ccc2c(=O)c(-c3ccccc3)coc2c1 | inconclusive [inhibitor, full curve]
CN(C)Cc1c(O)c(Cl)cc2c3c(c(=O)oc12)CCCC3 | inconclusive [activator, partial curve]
C[C@H]1C(c2ccccc2)=NN(c2ccccc2)[C@@H]1CO | inconclusive [activator, partial curve]
CCN(CC)c1ccc(-c2nn3c(-c4ccccc4OC)nnc3s2)cc1 | inconclusive [activator, partial curve]
Cc1c(-c2ccccc2)n[nH]c1C(=O)N=Nc1c(O)[nH]c2ccccc12 | inactive
COc1ccc(NCC(=O)Nc2ccc(Br)cc2F)c(OC)c1 | inactive
Cc1ccc(/C=N/NC(=O)CCCOc2ccc(Cl)cc2Cl)cc1[N+](=O)[O-] | inconclusive [inhibitor, single point]
Cc1ccc(S(=O)(=O)NC(C(=O)Oc2ccc3c(C)c(Cl)c(=O)oc3c2)c2ccccc2)cc1 (configuration not stated) | inconclusive [activator, single point]
CC(C(=O)NCc1ccco1)n1cc(C(=O)c2ccco2)c2ccccc21 (configuration not stated) | inconclusive [inhibitor, single point]
COc1ccc2c(c1)CCc1c(C(=O)NCCc3ccc(OC)c(OC)c3)noc1-2 | inconclusive [inhibitor, single point]
Cc1cc(=O)oc2cc(OC(=O)c3nn(C(C)C)c(=O)c4ccccc34)ccc12 | inconclusive [activator, partial curve]
CC(=O)Oc1cc2oc(=O)c3c(c2cc1Cl)CCC3 | inconclusive [activator, partial curve]
Cc1ccc(-n2c(SCC(=O)c3c(N)n(C)c(=O)n(C)c3=O)nc3sc4c(c3c2=O)CCCC4)c(C)c1 | inconclusive [inhibitor, single point]
COc1cc2c(cc1O)CC[n+]1cc3c(OC)c(OC)ccc3cc1-2 | inconclusive [inhibitor, single point]
CC(=O)NC1C(OCc2ccccc2)OC(COC(C)=O)C(OC(C)=O)C1OC(C)=O (configuration not stated) | inconclusive [inhibitor, partial curve, poor fit]
